Test results as given in publication PMC4336329 (PLoS ONE, 2015).
About 2,200 (0.71%) of roughly 310,000 compounds showed an effect of 50% or more. Effects have a minus sign here. The list shows a part of the results.

Target: human ether-à-go-go-related gene (hERG) potassium channel (human, UniProt Q12809)
Assay: primary screen, population patch clamp on CHO cells stably expressing hERG

Chain of human ether-à-go-go-related gene (hERG) potassium channel (Q12809 whole entry, looked up): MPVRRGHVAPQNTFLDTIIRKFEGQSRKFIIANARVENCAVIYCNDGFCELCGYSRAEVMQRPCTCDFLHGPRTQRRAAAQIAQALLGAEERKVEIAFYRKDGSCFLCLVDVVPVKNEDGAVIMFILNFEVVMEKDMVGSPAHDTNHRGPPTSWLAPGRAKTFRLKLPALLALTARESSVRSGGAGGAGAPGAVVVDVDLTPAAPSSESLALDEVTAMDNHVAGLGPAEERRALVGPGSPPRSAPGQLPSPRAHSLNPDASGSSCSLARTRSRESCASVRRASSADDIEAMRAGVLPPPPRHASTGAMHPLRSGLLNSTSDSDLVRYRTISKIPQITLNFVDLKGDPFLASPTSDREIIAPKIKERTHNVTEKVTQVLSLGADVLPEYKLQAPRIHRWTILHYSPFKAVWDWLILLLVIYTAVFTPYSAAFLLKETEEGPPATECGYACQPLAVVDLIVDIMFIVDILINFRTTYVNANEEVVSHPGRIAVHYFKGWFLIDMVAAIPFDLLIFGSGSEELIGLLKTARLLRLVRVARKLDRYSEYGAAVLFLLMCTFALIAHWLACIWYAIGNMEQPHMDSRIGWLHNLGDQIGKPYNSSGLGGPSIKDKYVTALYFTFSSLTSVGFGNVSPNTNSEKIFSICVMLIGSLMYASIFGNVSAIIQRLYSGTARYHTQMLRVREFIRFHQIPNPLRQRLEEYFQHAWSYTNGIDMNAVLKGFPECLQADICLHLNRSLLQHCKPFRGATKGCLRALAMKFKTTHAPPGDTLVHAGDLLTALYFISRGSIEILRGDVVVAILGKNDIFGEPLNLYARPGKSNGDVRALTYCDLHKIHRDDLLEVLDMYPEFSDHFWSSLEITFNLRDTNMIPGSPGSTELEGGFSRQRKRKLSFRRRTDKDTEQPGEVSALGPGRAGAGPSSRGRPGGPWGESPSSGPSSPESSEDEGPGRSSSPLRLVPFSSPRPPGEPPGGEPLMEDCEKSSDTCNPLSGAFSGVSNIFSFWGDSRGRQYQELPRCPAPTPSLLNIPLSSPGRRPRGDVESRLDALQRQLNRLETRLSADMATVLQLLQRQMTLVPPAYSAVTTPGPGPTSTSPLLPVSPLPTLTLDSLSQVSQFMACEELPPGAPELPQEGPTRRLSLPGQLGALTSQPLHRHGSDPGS

Row | SMILES | hERG current change (%, negative = inhibition) at 1uM [%]
1 | NS(=O)(=O)c1ccc(NC(=O)COC(=O)c2cc3ccccc3oc2=O)cc1 | 1.43
2 | CSc1cccc(NC(=O)C(C)Sc2ccc(C)cc2)c1 (stereo not shown) | 2.6
3 | COc1ccccc1C(=O)NC(CCSC)C(=O)N1CCC(Cc2ccccc2)CC1 (stereo not shown) | -0.203
4 | CCCn1c(N/N=C\C=C\c2ccccc2)nc2c1c(=O)[nH]c(=O)n2C | -3.7
5 | Cc1ccc(CNC(=O)c2ccccc2N)cc1 | 7.07
6 | COCCNc1nc(-c2cc(C(=O)Nc3ccccc3)on2)cc(C(C)C)n1 | 13.5
7 | O=C(C1CCN(S(=O)(=O)c2cccc3cccnc23)CC1)N1CCN(C2CCCCC2)CC1 | 7.43
8 | Cc1[nH]c2ccccc2c1C(=O)CN1CCN(C/C=C/c2ccccc2)CC1 | -50.4
9 | Cc1ccc(C(=O)NCCCN2CCOCC2)cc1N1CCCC1=O | 6.01
10 | CCOc1ccc2[nH]c(C)c(CN3CCN(C)CC3)c(=O)c2c1 | -13.4
11 | COCCn1c(=S)[nH]c2cc(C(=O)N3CCN(c4ccccc4OC)CC3)ccc2c1=O | 6.84
12 | Cc1ccc(NC(=O)c2cc(C)no2)cc1 | 13.3
13 | CC(C)[C@H](NC(=O)Nc1ccc(Oc2ccccc2)cc1)C(=O)O | 11.2
14 | COc1cc(/C=C(\C#N)c2nnc(N3CCOCC3)n2-c2ccccc2)ccc1O | 18.2
15 | Cc1ccc(C)c(OCC(=O)Nc2ccc(N3CCOCC3)cc2N2CCOCC2)c1 | 4.89
16 | CCOC(=O)N1CCC(=NNc2nc3ccccc3s2)CC1 | 4.29
17 | O=S(=O)(Nc1ccc2c(c1)OCCO2)c1cccc2nsnc12 | 5.63
18 | O=C(COc1ccccc1)OCC(=O)c1ccc(S(=O)(=O)N2CCCCC2)cc1 | 15.7
19 | CCOC(=O)CSc1ncccn1 | 6.09
20 | Cc1cc(C)c(C)c(S(=O)(=O)NCc2ccc(C(=O)NCC3CCCO3)cc2)c1C (stereo not shown) | 10.4
21 | Cc1csc(NC(=O)Cc2nn(C)c(=O)c3ccccc23)n1 | 9.7
22 | CC1CC(C)CN(S(=O)(=O)c2ccc(NN)nc2)C1 (stereo not shown) | 13.3
23 | CC(C)S(=O)(=O)c1csc(C(=O)NNC(=O)Nc2ccccc2)c1Cl | 2.93
24 | CCCNc1c(NS(=O)(=O)c2c(F)c(F)c(F)c(F)c2F)c(=O)oc2ccccc12 | -1.76
25 | CN(CC(=O)O/N=C(\N)c1cccc([N+](=O)[O-])c1)S(=O)(=O)c1ccccc1 | 7.41
